According to PubChem BioAssay AID588342 (National Center for Advancing Translational Sciences (NCATS), 2011):
The whole screen tested about 360,000 compounds, of which about 25,000 (6.9%) were called active. The inconclusive results got no clear call from the source; some entries with a clear call stand among them for comparison. Calls come from the whole dose curve; as a rule, active = well fitted inhibition curve with a large enough effect; inconclusive = small, poorly fitted or top-dose-only effect; inactive = flat fitted curve, though single readings scatter. Where the call is inconclusive, the potency comes from a doubtful curve fit.

Biological target: Luciferin 4-monooxygenase (Photinus pyralis) (UniProt P08659)
Experiment: qHTS profiling assay for firefly luciferase inhibitor/activator using purifed enzyme and Km concentrations of substrates (counterscreen for miR-21 project); note: nearly all actives have a fitted effect of over 55% in size
Conditions: purified FLuc, luminescence inhibition; series mostly up to 57.5 µM
Summary of the method: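 Biochemical qHTS of compounds, final roughly 60 µM downward over six points, against 10 nM purified firefly luciferase using Km concentrations of substrates (10 uM D-luciferin, 10 uM ATP) in Tris acetate pH 7.5 buffer; luminescence output.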
Potency is the fitted concentration of half-maximal effect; tags give direction and shape of the fitted curve.

UniProt P08659, sequence (P08659 whole entry, looked up): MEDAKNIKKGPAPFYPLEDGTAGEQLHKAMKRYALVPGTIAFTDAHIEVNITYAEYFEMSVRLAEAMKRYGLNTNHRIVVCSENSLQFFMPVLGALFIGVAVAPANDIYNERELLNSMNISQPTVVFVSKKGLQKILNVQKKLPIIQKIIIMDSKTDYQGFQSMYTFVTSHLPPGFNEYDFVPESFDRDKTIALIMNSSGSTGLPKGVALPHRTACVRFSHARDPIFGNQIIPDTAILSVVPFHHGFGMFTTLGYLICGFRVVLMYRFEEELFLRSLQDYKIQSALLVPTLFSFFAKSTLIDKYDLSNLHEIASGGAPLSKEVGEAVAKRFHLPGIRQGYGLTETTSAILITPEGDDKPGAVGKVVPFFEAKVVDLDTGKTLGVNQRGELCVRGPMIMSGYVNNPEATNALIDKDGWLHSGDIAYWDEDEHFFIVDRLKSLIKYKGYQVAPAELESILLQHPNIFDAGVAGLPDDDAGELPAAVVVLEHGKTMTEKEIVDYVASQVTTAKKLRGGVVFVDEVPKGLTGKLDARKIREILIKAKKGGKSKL

With `CCOC(=O)Cc1c(C)nc2cc(-c3ccc(C(C)(C)C)cc3)[nH]n2c1=O` as the molecule, how does the Potency read?
The Potency was active: 10.7 µM.

Which Potency does the source give for `O=C(CSc1nc2ccccc2c(=O)[nH]1)N1CCCCCC1` here?
Its Potency is inconclusive: 30.1 µM [inhibitor, partial curve, poor fit].

`CSc1cccc(NC(=O)Nc2ccccc2OCc2cc(=O)n3cc(C)ccc3n2)c1` was tested. Which Potency did it give?
The Potency was active: 3.01 µM.

How did the Potency turn out when `Cn1c(-c2ccccc2F)cc2onc(-c3ccccc3)c2c1=O` was run?
Its Potency is active: 0.536 µM.

With `Cn1c(=O)c2nc(-c3ccccc3)oc2c2ccccc21` as the molecule, how does the Potency read?
Its Potency is inconclusive: 16.9 µM [inhibitor, partial curve].

`CCCOc1ccc(C(=O)CCC(=O)OCC(=O)Nc2cc(C)on2)cc1` was tested. Which Potency did it give?
Its Potency is inconclusive: 5.36 µM [inhibitor, partial curve, poor fit].

For `Cc1ccc(-n2ncc3c(Nc4cccc(C(=O)O)c4)ncnc32)cc1`, which Potency is on record?
The Potency was active: 0.953 µM.

How did the Potency turn out when `O=C(COC(=O)c1ccncc1)c1ccccc1` was run?
Its Potency is active: 23.9 µM.

With `CCCCn1cnc2cc(NCc3ccccc3Cl)ccc21` as the molecule, how does the Potency read?
The Potency was active: 23.9 µM.

`COc1ccc(Nc2oc(COc3ccc(OC)cc3)nc2C#N)cc1` was tested. Which Potency did it give?
The Potency was inconclusive: 16.9 µM [inhibitor, single point].

How did the Potency turn out when `Cc1cccc(CSCc2nnc(N)s2)c1` was run?
The Potency was inconclusive: 21.3 µM [inhibitor, partial curve, poor fit].

How did the Potency turn out when `Cc1ccc(NC(=O)c2ccccc2O)cc1` was run?
Its Potency is active: 0.953 µM.

For `Cc1cc(NC(=O)COc2ccc(C(C)(C)C)cc2)no1`, which Potency is on record?
Its Potency is inconclusive: 9.53 µM [inhibitor, partial curve].

With `COc1ccccc1-c1nnc(NC(=O)C(C)C)s1` as the molecule, how does the Potency read?
The Potency was inconclusive: 8.49 µM [inhibitor, partial curve].

Which Potency does the source give for `COC(=O)c1cc(Cl)c(NC(=O)c2ccc(C(C)(C)C)cc2)cc1OC` here?
The Potency was inconclusive: 26.9 µM [inhibitor, single point].

For `Cc1cc(C)c2c(CC(=O)Nc3ccc(S(=O)(=O)Nc4nc(C)cc(C)n4)cc3)coc2c1`, which Potency is on record?
Its Potency is inconclusive: 33.8 µM [inhibitor, partial curve, poor fit].

Which Potency does the source give for `N#C/C(=C(O)\C=C\c1ccccc1)c1nc2ccccc2[nH]1` here?
Its Potency is inconclusive: 8.49 µM [inhibitor, partial curve, poor fit].

`Cc1cc(NC(=O)c2ccc(Br)cc2)nc(C)n1` was tested. Which Potency did it give?
Its Potency is inconclusive: 19 µM [inhibitor, partial curve].

For `O=C(O)c1sc2cccc(Cl)c2c1Cl`, which Potency is on record?
Its Potency is active: 5.36 µM.

How did the Potency turn out when `Cc1c(NS(=O)(=O)c2cc(C(=O)OCC(=O)N3CCC(C)CC3)ccc2Cl)c(=O)n(-c2ccccc2)n1C` was run?
The Potency was inconclusive: 23.9 µM [inhibitor, single point].
